According to paper PMC4336329 (PLoS ONE, 2015):
About 2,200 (0.71%) of roughly 310,000 compounds showed an effect of 50% or more. The effect is printed as a negative number. Some of the results follow.

target: human ether-à-go-go-related gene (hERG) potassium channel (human, UniProt Q12809); assay: primary screen, population patch clamp on CHO cells stably expressing hERG
Sequence (Q12809 whole entry, looked up): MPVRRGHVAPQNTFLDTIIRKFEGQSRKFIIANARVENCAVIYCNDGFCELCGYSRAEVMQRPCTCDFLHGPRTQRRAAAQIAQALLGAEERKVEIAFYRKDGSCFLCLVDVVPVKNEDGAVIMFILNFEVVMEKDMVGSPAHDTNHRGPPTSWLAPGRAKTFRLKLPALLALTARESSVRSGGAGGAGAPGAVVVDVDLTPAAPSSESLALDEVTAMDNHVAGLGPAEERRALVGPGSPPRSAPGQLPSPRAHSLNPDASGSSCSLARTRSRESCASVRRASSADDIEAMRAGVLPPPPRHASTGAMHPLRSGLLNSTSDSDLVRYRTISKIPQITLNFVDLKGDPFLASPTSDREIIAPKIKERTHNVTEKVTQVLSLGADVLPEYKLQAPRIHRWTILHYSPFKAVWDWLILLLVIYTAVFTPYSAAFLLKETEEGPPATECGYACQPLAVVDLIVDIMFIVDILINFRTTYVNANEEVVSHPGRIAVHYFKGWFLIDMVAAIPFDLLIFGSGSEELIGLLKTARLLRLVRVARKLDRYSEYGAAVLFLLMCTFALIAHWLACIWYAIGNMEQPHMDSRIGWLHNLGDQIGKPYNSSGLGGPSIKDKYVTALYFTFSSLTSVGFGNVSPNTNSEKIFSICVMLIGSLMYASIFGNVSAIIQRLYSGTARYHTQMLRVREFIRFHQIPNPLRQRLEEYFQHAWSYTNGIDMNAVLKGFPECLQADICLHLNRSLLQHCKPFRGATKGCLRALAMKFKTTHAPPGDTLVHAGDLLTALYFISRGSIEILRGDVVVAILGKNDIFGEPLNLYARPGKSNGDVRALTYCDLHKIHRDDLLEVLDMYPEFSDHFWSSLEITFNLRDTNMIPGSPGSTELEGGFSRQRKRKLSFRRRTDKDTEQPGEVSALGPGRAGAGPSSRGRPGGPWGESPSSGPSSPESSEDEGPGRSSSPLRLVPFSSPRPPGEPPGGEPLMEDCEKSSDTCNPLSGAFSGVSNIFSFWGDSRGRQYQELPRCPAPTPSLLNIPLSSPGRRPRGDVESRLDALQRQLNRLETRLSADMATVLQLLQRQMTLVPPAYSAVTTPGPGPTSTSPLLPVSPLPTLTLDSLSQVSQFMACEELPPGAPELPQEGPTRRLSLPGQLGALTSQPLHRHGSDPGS

Structure (SMILES)	hERG current change (%, negative = inhibition) at 1uM [%]
Nc1cc(N)nc(SCC(=O)NNC(=O)c2ccc(Cl)cc2)n1	-2.13
Cc1ccc(/C=C/C(=O)OCC(=O)NCc2ccc(Cl)cc2)o1	-0.827
O=C1c2oc3ccccc3c(=O)c2C(c2cccc(O)c2)N1c1ccccn1 (centres unmarked)	-2.4
Cc1ccc(C)c(Cn2c(C(=O)O)c(C=O)c3ccccc32)c1	-8.11
Cc1ccc(S(=O)(=O)N2CCC(C(=O)OCC(=O)NC3(C#N)CCCCC3)CC2)cc1C	8.05
COCc1ccc(C(=O)N2CCCC(CNC(=O)c3ccc(F)cc3)C2)o1 (centres unmarked)	6.99
COc1ccc(-c2cc(C(F)(F)F)nc(SCC(=O)NCc3ccco3)n2)cc1OC	3.99
CCOc1ccc(N2C(=O)CC(N3CCN(C(=O)c4ccco4)CC3)C2=O)cc1 (centres unmarked)	-0.64
COc1cc2c(cc1OC)CN(C(=S)Nc1ccccc1)CC2	7.72
Cc1ccc(CS(=O)(=O)CCC(=O)NCCN2CCCC2)cc1	6.27
CSc1ccc(CN2CCC(C(=O)NCc3ccc(C)cc3)CC2)cc1.O=C(O)C(=O)O	-76.1
CCCn1c(=S)[nH]c2sc3c(c2c1=O)CCCC3	7.58
COC(=O)c1ccc(CN2CCCC(C(=O)c3ccccc3OC)C2)cc1 (centres unmarked)	-6.6
CN(C(=O)COC(=O)c1n[nH]c2ccccc12)c1ccccc1	11.2
C/C(=C\c1ccco1)C1C(C#N)=C(N)Oc2n[nH]c(-c3ccc(C)cc3)c21 (centres unmarked)	15.8
COc1ccc(/C=C(/NC(=O)c2ccc(OC)c(OC)c2)C(=O)NCCCn2ccnc2)cc1	15.5
COc1ccccc1-c1nnc(SCC(=O)N2CCC(C)CC2)o1	5.73
O=C(NC1C2CC3CC(C2)CC1C3)c1ccc(Br)o1 (centres unmarked)	3.13
CC(=O)N1c2ccc(S(=O)(=O)NCCC(=O)NCCc3ccc(Cl)cc3)cc2CC1C (centres unmarked)	5.01
CC(=O)Nc1ccc(NC(=O)c2cc(-c3cc(C)c(C)cc3O)n[nH]2)cc1	12.7
COc1cccc(Oc2nnnn2-c2ccccc2)c1	3.16
CCc1[nH]nc2c1C(c1ccc(Br)s1)C(C#N)=C(N)O2 (centres unmarked)	7.25

Structure (SMILES)	hERG current change (%, negative = inhibition) at 1uM [%]
CSc1nc2ccc(S(N)(=O)=O)cc2s1	15
Cc1snc(S(=O)(=O)/C(C#N)=N/Nc2cccc(C(F)(F)F)c2)c1C#N	5.29
CSc1ccc(CNC(=O)C2Cc3cc(S(=O)(=O)N4CCCC4)ccc3N2C(C)=O)cc1 (centres unmarked)	10.1
CCC1(CC)NC(=O)N(CC(=O)OCC(=O)Nc2cc(OC)ccc2OC)C1=O	4.73
Cc1coc2c1c(C)cc1oc(=O)c(CC(=O)NCC(=O)O)c(C)c12	17.4
COc1cccc(CC2CC(=O)N(c3ccc4c(C)cc(=O)oc4c3)C2=O)c1 (centres unmarked)	5.07
CCCCNC(=O)[C@H]1C[C@H]1[C@@H](O)[C@H](CO)NC(=O)[C@H](Cc1ccccc1)NC(=O)OC(C)(C)C	11.5
COc1cc(C2NC(=O)NC(C)=C2C(=O)OCC2CCCCC2)ccc1O (centres unmarked)	11.3
CCOC(=O)c1cc(NC(=O)Nc2ccc(Br)cc2)c(C)nc1C	7.68
COc1ccc(NC(=O)C2CCCN2C(=O)OCc2ccccc2)cc1 (centres unmarked)	6.39
COc1ccc(OCCCN2CCCC(C)C2)cc1 (centres unmarked)	-2.33
CN(CC(=O)Nc1ccc(Cl)c(Cl)c1)C(=O)c1cccc2cccnc12	4.87
Cc1ccc(S(=O)(=O)Nc2cccc(C(=O)NCc3ccccn3)c2)cc1F	11.3
O=S(=O)(Nc1cc(F)ccc1F)c1cccc2nonc12	-61
COc1cccc(OCc2nc3ccccc3[nH]2)c1	8.07
Cc1ccc(NC(=O)c2ccccc2NC(=O)c2cccnc2)cc1	14.4
CC(=O)Nc1nc2n(n1)C(c1ccccc1)C=C(c1ccccc1)N2 (centres unmarked)	0.0514
CS(=O)(=O)N(CC(=O)NCc1cccnc1)C1CCCCC1	6.48
O=C(CCS(=O)(=O)c1ccccc1)Nc1nncs1	8.06
CCCNC(=O)N1CCN(S(=O)(=O)c2ccc(C)c(C)c2)CC1	-7.15
Cc1ccccc1NC(=O)c1ocnc1C	16.2
C[n+]1c2n(c3ccccc31)N=C(c1ccccc1)CS2.[Br-]	-17.3
